From PubChem BioAssay AID1508623 (National Center for Advancing Translational Sciences (NCATS), 2021)
The whole screen tested about 48,000 compounds, of which about 450 (0.94%) were called active. Not shown: some 19% with an inconclusive outcome. Calls follow the shape of the dose curve; as a rule, active = well fitted inhibition curve with a large enough effect; inconclusive = small, poorly fitted or top-dose-only effect; inactive = no such curve, though single readings can be large or run the other way. This is one part of the list.

Experiment: Primary qHTS for Identification of Small Molecule Inhibitors of Huntingtin Promoter Activity; also: nearly all actives have a fitted effect of over 50% in size
Conditions: HEK293 HTT promoter firefly luciferase reporter (activity 0% = vehicle and -100% = no light), 24 h; series mostly up to 57.5 µM; activity change, negative = inhibition: at the top concentration
How it was run: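 Luminescence was read after Dual-Glo reagent and a 10 min room-temperature incubation. Values were normalized to vehicle (0% activity) and zero RLU (-100% activity). Reporter HEK293 cells had been exposed to compounds (up to 57.5 uM final) for 24 h.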

Row | Structure (SMILES) | activity change, negative = inhibition
1 | CC1CCN(S(=O)(=O)c2nnc(NC(=O)c3cccc(F)c3)s2)CC1 | inactive: -29.2%
2 | COC(=O)c1sc2cccc(F)c2c1S(=O)(=O)N1CCN(c2ccc(C)cc2C)CC1 | inactive: -9.04%
3 | COc1nc(-c2ccc(C)cc2)ccc1-c1noc(-c2ccc(C(C)(C)C)cc2)n1 | inactive: -11.4%
4 | COc1ccccc1N1CCN(c2cc(C)nc3nc(-c4ccc(Cl)cc4)nn23)CC1 | inactive: -20.6%
5 | COc1ccc(OC)c(S(=O)(=O)NCCc2csc3nc(-c4ccccc4)nn23)c1 | inactive: -3.4%
6 | Cc1cccc(N2CCN(C(=O)c3ccc4c(c3)c(C)c(C)n4C)CC2C)c1 (stereo unspecified) | inactive: -1.49%
7 | Cc1ccc(NC(=O)c2cc(S(=O)(=O)N3CCCC3)c[nH]2)c(C)c1 | inactive: -6.88%
8 | CCOc1ccc2oc(=O)cc(CN3CCN(c4ccc(Cl)cc4)CC3)c2c1 | inactive: -11.7%
9 | CC(=O)N1CCc2cc(Br)cc(S(=O)(=O)CCC(=O)Nc3ccc(C)cc3Cl)c21 | inactive: -9.57%
10 | CCc1c(C)c2ccc(O)c(CN3CCN(c4ccccc4)CC3)c2oc1=O | inactive: -0.914%
11 | CCOC(=O)c1c(NC(=O)COc2ccc(Cl)cc2C)sc(C(C)=O)c1C | inactive: 4.72%
12 | CCN1CCN(c2cc(C)c3cc(NC(=O)c4ccccc4F)ccc3n2)CC1 | inactive: 22.2%
13 | CCc1cccc(C)c1NC(=O)CN(C)S(=O)(=O)c1cccc2nsnc12 | inactive: -29.6%
14 | Cc1ccc(N2CCN(c3nc4c(S(=O)(=O)c5ccc(C)c(C)c5)nnn4c4ccccc34)CC2)c(C)c1 | inactive: 5.37%
15 | Cc1c(C(=O)N(Cc2ccc(N(C)C)cc2)CC2CCCO2)oc2ccc(Br)cc12 (stereo unspecified) | inactive: -10.6%
16 | Cc1ccc(S(=O)(=O)c2cn(C)c3cc(N4CCCCC4)c(F)cc3c2=O)cc1 | inactive: -11.9%
17 | COc1ccc(C)cc1NC(=O)N1CCC(CN2CCC(C)CC2)CC1 | inactive: -4.32%
18 | COC(=O)c1ccccc1NC(=O)Cn1c(=O)n(-c2cccc(C(F)(F)F)c2)c(=O)c2c(C)c(C)sc21 | inactive: -6.09%
19 | COCCCNC(=O)c1ccc(Cn2c(SCc3cccc(C)c3)nc3cccnc32)cc1 | inactive: -11.4%
20 | Cc1ccc(S(=O)(=O)NCC2CCC(C(=O)NCCc3ccc(Cl)cc3)CC2)cc1 (stereo unspecified) | inactive: -0.369%
21 | CCOC(=O)C1CCCN(C(=O)c2nn(-c3ccc(C)cc3)c(=O)c3c2c2ccccc2n3C)C1 (stereo unspecified) | inactive: -11.3%
22 | CCCn1c(CCCNC(=O)c2ccccc2OC)nc2ccccc21 | inactive: -10.1%
23 | O=C(/C=C\c1ccccc1)NC1CC(=O)N(c2ccccc2)C1 (stereo unspecified) | inactive: -26.8%
24 | CC(=O)CCCCn1c(=O)c2c(ncn2C)n(C)c1=O | inactive: -2.34%
25 | CCN(Cc1ccccc1)C(=O)c1sc2nc3n(c(=O)c2c1C)CCCC3 | inactive: -18%
26 | CCN(CC)CCCNC(=O)c1nn(-c2ccc(C)cc2)c(=O)c2c1c1ccccc1n2C | inactive: -8.31%
